Laboratory results: PubChem BioAssay AID488969 (Vanderbilt High Throughput Screening Facility, 2010)
The full ranking holds about 110,000 compounds; the median of “z-score” is about -0.1, and the highest 2% start at about 2. The list shows a part of the results. Active and inactive are the calls of the source.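 The calls were made as follows: active = z-score in the third read window above 3 or below -3; inactive = the rest.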

Target: Metabotropic glutamate receptor 8 (Rattus norvegicus) (UniProt P70579)
Test: mGluR8 Gi/Go-coupled signaling modulation – cell-based, rat, thallium flux, HTS, primary screen (AID 488969)
Details: HEK293 rat mGluR8, GIRK (G protein-gated inwardly rectifying potassium channel) thallium flux, FluoZin2; at 10 µM; stronger effect = higher value; submaximal glutamate (EC20) added with thallium

Sequence of UniProt P70579 (P70579 whole entry, looked up): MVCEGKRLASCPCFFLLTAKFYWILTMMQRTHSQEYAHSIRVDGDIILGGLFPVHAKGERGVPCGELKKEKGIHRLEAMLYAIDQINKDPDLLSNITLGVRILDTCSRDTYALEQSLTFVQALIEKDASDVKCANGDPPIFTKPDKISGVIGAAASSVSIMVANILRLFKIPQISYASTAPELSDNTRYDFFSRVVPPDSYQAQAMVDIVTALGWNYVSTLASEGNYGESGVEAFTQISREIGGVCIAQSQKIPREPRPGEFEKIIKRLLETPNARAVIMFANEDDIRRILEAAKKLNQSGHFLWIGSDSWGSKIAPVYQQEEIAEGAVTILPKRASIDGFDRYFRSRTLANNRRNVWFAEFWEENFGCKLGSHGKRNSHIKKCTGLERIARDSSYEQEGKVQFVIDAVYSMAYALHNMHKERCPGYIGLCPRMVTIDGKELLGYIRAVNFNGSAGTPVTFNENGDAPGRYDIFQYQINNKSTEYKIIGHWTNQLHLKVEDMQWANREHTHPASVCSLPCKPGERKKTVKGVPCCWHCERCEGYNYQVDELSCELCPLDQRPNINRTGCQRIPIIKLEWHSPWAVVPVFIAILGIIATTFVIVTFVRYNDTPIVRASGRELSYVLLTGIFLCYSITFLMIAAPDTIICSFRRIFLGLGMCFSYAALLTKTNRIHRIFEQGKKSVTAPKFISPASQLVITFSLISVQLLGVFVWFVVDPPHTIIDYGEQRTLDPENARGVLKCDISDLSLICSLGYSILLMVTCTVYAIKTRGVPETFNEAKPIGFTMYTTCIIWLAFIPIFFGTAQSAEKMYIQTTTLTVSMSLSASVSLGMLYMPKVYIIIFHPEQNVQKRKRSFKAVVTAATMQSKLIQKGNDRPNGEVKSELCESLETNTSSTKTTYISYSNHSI

Structure (SMILES) | z-score
O=C(Nc1nccs1)NC(C(F)(F)F)C(F)(F)F | 0.0731
COC(=O)c1cc(C(=O)OC)n(Cc2ccc(Cl)cc2Cl)n1 | -0.126
N#Cc1cn(CCOc2ccccc2F)c2ccccc12 | -0.493
COc1ccc(CNC(=O)c2cccnc2Sc2ccc(Cl)cc2)cc1 | 0.577
Cc1ccccc1C(=O)NN(C)c1nc2ccccc2nc1C(F)(F)F | -0.161
O=C(Cn1nc(Cc2cccnc2)c2ccccc2c1=O)NCCCN1CCCC1=O | 0.264
CC(C)CNC(=O)c1nc(-c2ccccc2)n(-c2ccccc2)n1 | -0.332
Cc1ccc(-c2cn(S(=O)(=O)c3cccc4nsnc34)nc2N)cc1 | -1.12
O=C(c1ccc(F)cc1)N1CCN(C(=O)c2cccnc2)CC1 | -0.493
O=C(Nc1ccc2ccccc2c1)c1onc2c1CCCC2 | 0.0246
[2H]c1c([2H])c([2H])c(C(=O)c2sc(N3CCCCCC3)nc2-c2ccccc2)c([2H])c1[2H] | -0.327
CN(C)c1ccc(NC(=O)c2cccc(N3C(=O)C4C5C=CC(C5)C4C3=O)c2)cc1 (stereo not given) | -0.147
Cc1cccc(N2CCN(C(=O)C3CCCN(S(=O)(=O)c4c(C)noc4C)C3)CC2)c1C (stereo not given) | -0.465
CN(C)c1ccc(/C=N/NC(=O)c2ccc(CN3C(=O)c4cccc5cccc3c45)cc2)cc1 | -0.1
Cc1ccc(S(=O)(=O)NCCCCCC(=O)Nc2ccccn2)cc1 | -0.197
Cc1cc(=O)n2[nH]c(N)c(N=Nc3ccccc3)c2n1 | -0.244
Cc1ccc(NC(=O)Cn2c(=O)n(CCCC(=O)NCc3ccco3)c(=O)c3ccccc32)cc1 | 1.11
COc1cccc(CNCCSc2nnnn2C)c1 | -0.331
COc1ccc(-c2nn(C)c(=O)c3ccccc23)cc1NC(=O)Cn1nc(-c2ccccc2)c2ccccc2c1=O | -0.728
O=C(Nc1nnc(C2CC2)s1)c1ccncc1 | 0.0327
O=c1c2cnn(-c3ccccc3)c2ncn1/N=C/c1ccncc1 | -0.283
O=C(CSc1nnc(Cc2cccs2)n1-c1ccc(Cl)cc1)NCc1ccc2c(c1)OCO2 | -0.113
CCn1c(SCC(=O)NCc2ccco2)nnc1-c1cccs1 | -0.0195
N#CCCCSc1nnnn1-c1cccc(Cl)c1 | -0.399

Structure (SMILES) | z-score
Cc1nc(-c2cccnc2)sc1C(=O)Nc1ccc(Cl)cc1 | -0.679
Cc1nn(C(=O)c2cc3sccc3[nH]2)c(C)c1C | -0.18
CCOC(=O)c1noc(C)c1C(=O)Nc1cccc(F)c1 | -0.0079
COc1ccc(C)cc1Cn1c(S(C)(=O)=O)nc2ccccc21 | -2.09
CCOC(=O)/C(=C/c1ccccc1)NC(=O)c1ccco1 | -0.14
COc1ccccc1NC(=O)c1ccc(-n2cccn2)nc1 | -0.237
CC1=C(C#N)C(Nc2ccc(Cl)cn2)(C(F)(F)F)C(=O)N1 (stereo not given) | 0.0919
Cc1nc(NC(=O)c2ccc(Br)o2)sc1C | -0.141
Cc1nn(-c2nc3ccccc3n2Cc2ccccc2)c2c1C(=O)CC(C)(C)C2 | -1.13
CSc1nsc(NC(=O)Cc2ccccc2)n1 | -0.175
CCCc1nnc(N2C(=O)c3cccc4cccc(c34)C2=O)s1 | 0.128
CC(C)N1C/C(=C/c2ccsc2)C(=O)/C(=C/c2ccsc2)C1 | -0.21
CCNc1nc(SCCOc2ccccc2)nc(N(C)C)n1 | 0.0574
Cc1cccnc1NC(=O)/C=C/c1ccc2c(c1)OCO2 | 0.00142
Cc1ccc(Cl)cc1N1CCN(C(=O)CSc2nnc3n2C(C)(C)Cc2ccccc2-3)CC1 | 1.18
CCOC(=O)c1cnc2sc3c(n2c1=O)CCCC3 | -0.748
Cc1ccc(S(=O)(=O)C2C(=O)N(C)C3(C)CC2c2ccccc2O3)cc1 (stereo not given) | -0.0246
Cc1cc(Cl)c(S(=O)(=O)NC(C(=O)O)C(C)C)cc1OCC(=O)NC1CCCCC1 (stereo not given) | -0.47
Cc1cccc(-n2c(C)nc3cc(C(=O)NCc4ccc5c(c4)OCO5)ccc32)c1 | 0.471
Cn1c(=O)n(CC(=O)O)c(=O)c2c1nc1n2CCS1 | 0.0884
COc1ccc(C2c3c(oc4ccccc4c3=O)C(=O)N2CCCN2CCOCC2)cc1 (stereo not given) | 0.392
CC(=O)Nc1ccc(C(=O)CSc2nc3ccc(C)cc3[nH]2)cc1 | active: -3.05
CC(=O)Nc1cccc2c1C(=O)N(c1cccc(C)c1)C2=O | active: 3.13
O=C(CSC1=Nc2ccccc2C2=NC(CC(=O)NCc3ccco3)C(=O)N12)NCc1ccco1 (stereo not given) | 0.141

Structure (SMILES) | z-score
COc1cc(NC(=O)CN(C)Cc2ccc(OC(F)F)cc2)c(C)cc1[N+](=O)[O-] | -0.0913
Cc1ccc(N=Cc2c(O)n(-c3nccs3)c(=O)c3ccccc23)cc1 | -0.21
COc1cc(C)c(Cl)cc1S(=O)(=O)NCC1CCCO1 (stereo not given) | 0.287
CC(=O)C1=C(C)OC(N)=C(C#N)C1c1ccco1 (stereo not given) | 1.13
Nc1nonc1C(=O)NCCc1ccccc1 | -0.0967
CCn1c(=O)c(C(=O)CN2CCc3ccccc32)c(N)n(Cc2ccccc2)c1=O | -0.27
Cn1c(=O)c2c(nc(SCC(=O)NCc3ccc4c(c3)OCO4)n2Cc2ccc(Cl)cc2)n(C)c1=O | 1.03
Cc1ccc(C2C=C(c3ccc4c(c3)OCO4)Nc3ncnn32)cc1 (stereo not given) | -0.377
CCc1nc2cc(CC(=O)O)ccc2o1 | -0.775
CCCCn1c(/C=N/Nc2nc3ccccc3[nH]2)nc2ccccc21 | -0.339
O=C(NCc1ccc2c(c1)OCO2)c1ccc(CN2CCOCC2)cc1 | 0.16
CC1CC(C)CN(CCCSc2ccccc2)C1 (stereo not given) | 0.321
COCCCNC(=O)c1ccc(N(C)S(=O)(=O)c2ccc(OC)cc2)cc1 | 0.906
COC(=O)c1ccc(NC(=O)COc2ccc(S(=O)(=O)N3CCCCC3)cc2)cc1 | 0.21
Cc1nc2c(C#N)c[nH]n2c(=O)c1Cc1ccccc1 | -0.371
CCC(C)NC(=O)C1c2ccccc2C(=O)N1Cc1ccc(OC)cc1OC (stereo not given) | -0.296
COc1ccc(/C=C2\N=C(SC)NC2=O)cc1 | 1.23
CCCCCCNC(=O)C(C#N)c1nc2ccccc2nc1N1CCOCC1 (stereo not given) | 0.653
O=C(NCCN1CCN(c2ccccc2)CC1)c1ccc(NC(=O)C2CCCO2)cc1 (stereo not given) | 0.24
CN1/C(=C\C=Nc2cc(S(=O)(=O)N3CCOCC3)ccc2N2CCOCC2)C(C)(C)c2ccccc21 | 0.15
O=C(NCC1CCCO1)c1onc(CSc2ccc(Cl)cc2)c1C(=O)O (stereo not given) | -0.0082
CNS(=O)(=O)c1ccc(OC)c(-c2nnc3c4ccccc4c(C)nn23)c1 | -0.304
